Experimental data: PMC12136788
Some of the results follow.

B1: chr19:45711045:45711146:-|3pUTR|ENSG00000177051|msi1|FALSE|bound_elsewhere (ssRNA)
RNA: GGGAGUUCUACAGUCCGACGAUCGAAUUGGGGGCUGUCAGGUCACAGGUGGGAUCUGGCAUUUUUUUAUGACAGUCCAUUUCUAGAUGGUUUGCCUAUUAAAGAAGUGGGGGGGAAAUACUGUUUUCUCCUUAACCUCAAGCUCAACAGAGGAUUGAGCAUCA
B2: chr1:13115521:13116400:-|CDS|ENSG00000275774|control|control|control (ssRNA)
RNA: GGGAGUUCUACAGUCCGACGAUCGAACAGAGCAAACAAGAGGUAGAGGUGAAAAAUGCUAAGUCAGAAGAGGAGCAGAGCAGUAGCUCCAUGAAGAAAGAUGAGACUCAUGUAAAGAUGGAGUCUGAGGGGGGUGCAGAAGACCAACAGAGGAUUGAGCAUCA
B3: chrX:53432280:53432385:-|CDS|ENSG00000072506|unk|FALSE|unique (ssRNA)
RNA: GGGAGUUCUACAGUCCGACGAUCUGAGAAGGAUGUGCAAACAGCUCUGGCUCUAGCAAAAGGAAAGUUUGGCCGUGUGGAUGUAGCUGUCAACUGUGCAGGCAUCGCGGUGGCUAGCAAGACGUACAACUUAAAGAAGGGCCACAACAGAGGAUUGAGCAUCA
B4: chrX:100644401:100644502:+|5pUTR|ENSG00000102359|unk|FALSE|bound_elsewhere (ssRNA)
RNA: GGGAGUUCUACAGUCCGACGAUCUUAACAGAAUCCCGGAGGCCGGGACAGACCAGGAGCCACUCGUUCUAGGAAUGUUAAAGUAGAAGGUUUUUUCCAAUUGAUGAGAGGAGCAGAGAGGAAGGAGAAAGAGGAGGAGAGAGACAACAGAGGAUUGAGCAUCA
B5: chr19:45489345:45489553:-|CDS|ENSG00000125744|control|control|control (ssRNA)
RNA: GGGAGUUCUACAGUCCGACGAUCAGGACGUCAGGAGUGGUCUUCACAGGCCUGAUGGUCUCCCUCCUCUGCCUCCUGCACUUUAGCAUCGUGUCCGUGGCCGCGCACUUGGCUCUGUUGCUGCUCUGCGGCACCAUCUCUCUCCAACAGAGGAUUGAGCAUCA
B6: chr19:35623609:35623710:+|3pUTR|ENSG00000249115|unk|FALSE|unique (ssRNA)
RNA: GGGAGUUCUACAGUCCGACGAUCGCCUUCUAGUUUGUAUAGUUUCUUUUUUUACAUGUAAAUCAGCCAUUUGGAAUUUAUCCUAGCACAUGGAUCCAAUUUUGUCUUAUUUUACAUAUAUCCUAGUAGCACUUACUGAAAUUCCAACAGAGGAUUGAGCAUCA
B7: chr14:99169286:99174150:-|three_prime_utr|ENSG00000127152|control|control|control (ssRNA)
RNA: GGGAGUUCUACAGUCCGACGAUCAAUUCCUUUAAGAGAUUUUGUUGGGUAUCCAUCCCUUCUUUGUUUUUUUUUUAACCCGGUAGUAGCCUGAGCAAUGACUCGCAAGCAAUGUUAGAGGGGAAGCAUAUCUUUUAAAUUAUACAACAGAGGAUUGAGCAUCA
B8: chr10:86890108:86890218:+|CDS|ENSG00000107779|unk|FALSE|unique (ssRNA)
RNA: GGGAGUUCUACAGUCCGACGAUCUCAUGGCACUGGGAUGAAAUCAGACUCCGACCAGAAAAAGUCAGAAAAUGGAGUAACCUUAGCACCAGAGGAUACCUUGCCUUUUUUAAAGUGCUAUUGCUCAGGGCACUGUCCAGAUGACAACAGAGGAUUGAGCAUCA
B9: chr2:101892430:101892531:+|3pUTR|ENSG00000071054|msi1|total|mutant (ssRNA)
RNA: GGGAGUUCUACAGUCCGACGAUCCCAUCCGAGGUUGAUGGGGCAACUGCAGCCCAUGACACAAGAUCUCAUUGUUCUCGAUGCCGAGGGGUUGGCCGCAGACAGGUGGUUACAUCCGAACCGUCACACAAACUGUUCAGUGUUCAACAGAGGAUUGAGCAUCA
B10: chr3:52708059:52708100:+|3pUTR|ENSG00000114902|msi1_unk|total|mutant (ssRNA)
RNA: GGGAGUUCUACAGUCCGACGAUCACACAAGUAUGAAGUUUCUUUCAGGUGUAAAUAAUGAAAAAUAAAUGCCUCAUAAAUGACCGUACAAUGUAACUAUCAAAGUUUUAUAAUUCAUUAUGAGUUAACCAUUUUAAUGUUUCCCAACAGAGGAUUGAGCAUCA
B11: chr10:70774212:70774357:-|CDS|ENSG00000166220|control|control|control (ssRNA)
RNA: GGGAGUUCUACAGUCCGACGAUCAAAAGACCUCGCUCUGGGACUCCUGCAGACAGCAGUGGCUCAGCUCCUUCCCCAGCCCCUAGUCUCCAUCCCUACAGAAAAGCUCCUAAGCCAGCUUCCAGAAGUGCAUGAACCUCCUCACAACAGAGGAUUGAGCAUCA
B12: chr11:130144177:130144243:+|3pUTR|ENSG00000084234|msi1_unk|total|mutant (ssRNA)
RNA: GGGAGUUCUACAGUCCGACGAUCAUGAGGGUGUCCGCUGCUGCUUUCCUUCGGAAUCCAGUGCUUCCACAGAGAUCCGCCUGCCGCUUAUAUUUGACAUUCUUCACUGUCUGUUGUUUACCUACCGCCGCUUUUUACCGUUCACAACAGAGGAUUGAGCAUCA
B13: chr17:67340809:67340863:-|CDS_3pUTR|ENSG00000197170|msi1_unk|FALSE|overlapping (ssRNA)
RNA: GGGAGUUCUACAGUCCGACGAUCACAAAACUACGCAUCUCAUAGCCAAAGAGGAGAUGAUACAUAAUCUACAAUAAGGGUCUUAGUGCUUUAGAAAAAAGUUAAAAUUGGAAGUCAUUAAAAAAAGACUGUUAUAAUGGUGUACAACAGAGGAUUGAGCAUCA
B14: chr1:155134173:155134274:+|3pUTR|ENSG00000169242|msi1|total|mutant (ssRNA)
RNA: GGGAGUUCUACAGUCCGACGAUCGCCACUUUCAGAGCCCCCAGCCCUGGGAACCACUCCCACCACAGGCAUAAGCUAUCACCCCGCAGCCUCAAAACGGGUCAGUAUUAAGGUUUUCAACCGGAAGGAGGCCAACCAGCCCGACAACAGAGGAUUGAGCAUCA
B15: ENSG00000112679:stop:overlap|stop_codon|ENSG00000112679|stop_codon|NA|stop_codon (ssRNA)
RNA: GGGAGUUCUACAGUCCGACGAUCGCUUCCAGAGACAGCUCCAGGAGUUUGAGAAGCAUGAGGUCCAUCAGGUAAGCAGUUCUUAGGGGACAUCAGAGAUGCAGGCAGGUGCCCCUGAACGGUGCCCACAGUCUUUCCGUACACCAACAGAGGAUUGAGCAUCA
B16: chr4:173248057:173248158:+|CDS|ENSG00000109586|unk|total|mutant (ssRNA)
RNA: GGGAGUUCUACAGUCCGACGAUCUUCAAACCUGUGGUACCAUGGCCUCAUGUUGAAGGAGCCGAAGUGGACUCCGAGUCUAUCCGAAGAAUAAACAAGGCCAAAAAUGAACAAGAGCACCAUGCUGGAGGAGAUUCCCAGAAACAACAGAGGAUUGAGCAUCA
B17: chr20:59325757:59325866:+|3pUTR|ENSG00000124205|unk|total|mutant (ssRNA)
RNA: GGGAGUUCUACAGUCCGACGAUCUUAUGUGGAUCUGUUCAAAGCCGUCACUGUAUAUACGUACCGAGAGGCCGACCGGCCGGCCGAUUUUAAAUUGCAUUCUGAAUACAAACUCAUACUCCUCCGAGCUUGAAUUACAUUUUUCAACAGAGGAUUGAGCAUCA
B18: ENSG00000070961:be:win_6001|3pUTR|ENSG00000070961|bound_else_gene|NA|bound_elsewhere_windowed (ssRNA)
RNA: GGGAGUUCUACAGUCCGACGAUCCAAGACAUGCUUAGUGUGUAUUUCUCUCUUUGAGACACUGUAAUUUCUACCAGAAAUUUCCAGAGCAUUAUGUAGGUAGAAAAAAAUGCAAGCAAGCUGUUAAAGAUCUUGGAUCCCAUUCAACAGAGGAUUGAGCAUCA
B19: chr1:183142599:183142700:+|CDS|ENSG00000135862|msi1|total|mutant (ssRNA)
RNA: GGGAGUUCUACAGUCCGACGAUCAACGAGAUUGAAGGCACCCUAAACAAAGCCAAAGAUGAAAUGAAGGUCAGCGAUCUUGACCGGAAAGUGUCUGACCUGGAGAAUGAAGCCAAGAAGCAGGAGGCUGCCAUCAUGGACUAUCAACAGAGGAUUGAGCAUCA
B20: chr5:60870179:60870280:-|3pUTR|ENSG00000049167|unk|FALSE|unique (ssRNA)
RNA: GGGAGUUCUACAGUCCGACGAUCUCUCCUUGCCCUUUUUGUUUUGUUUUGUUUCAAUUCUUAGAACUGUAGUUGGCAUGUAGUAGGUGCUUAAUAAUUACUUGUUUUGUUGUUUCUGUCCUAUACUUUGAGAGUUUGUGUUUGCAACAGAGGAUUGAGCAUCA
B21: ENSG00000124766:be:win_751|CDS|ENSG00000124766|bound_else_gene|NA|bound_elsewhere_windowed (ssRNA)
RNA: GGGAGUUCUACAGUCCGACGAUCGGCGCCGCCGCCGACCACCACUCGCUGUACAAGGCGCGGACUCCCAGCGCCUCGGCCUCCGCCUCCUCGGCAGCCUCGGCCUCCGCAGCGCUCGCGGCCCCGGGCAAGCACCUGGCGGAGCAACAGAGGAUUGAGCAUCA
B22: ENSG00000180447:stop:overlap|stop_codon|ENSG00000180447|stop_codon|NA|stop_codon (ssRNA)
RNA: GGGAGUUCUACAGUCCGACGAUCCCCGGGGCGCCUGGACCCCACUCGCCUCCAUCUUGCUGCUGCUGCUUGGGCCGCUCUUUUAGCCCUCGCGCCCCCCGCCGUUGGCUGCGGGAGAGCCCGCGUCCCACUCCCGUGCUCGCCCAACAGAGGAUUGAGCAUCA

target: MSI1 full-length (mouse, UniProt Q61474 1-362); test: nsRBNS (natural sequence RNA bind-n-seq); RBNS binding buffer (assumed for nsRBNS): 25 mM Tris pH 7.5, 150 mM KCl, 3 mM MgCl2, 0.01% Triton X-100, 500 ug/ml BSA, 20 U/ml SUPERase-In, 4 C; UNK is unkempt and MSI1 is Musashi-1; names of the RNAs are library labels; protein concentration not given here; high values mean tight binding
Sequence of UniProt Q61474 (Q61474 whole entry): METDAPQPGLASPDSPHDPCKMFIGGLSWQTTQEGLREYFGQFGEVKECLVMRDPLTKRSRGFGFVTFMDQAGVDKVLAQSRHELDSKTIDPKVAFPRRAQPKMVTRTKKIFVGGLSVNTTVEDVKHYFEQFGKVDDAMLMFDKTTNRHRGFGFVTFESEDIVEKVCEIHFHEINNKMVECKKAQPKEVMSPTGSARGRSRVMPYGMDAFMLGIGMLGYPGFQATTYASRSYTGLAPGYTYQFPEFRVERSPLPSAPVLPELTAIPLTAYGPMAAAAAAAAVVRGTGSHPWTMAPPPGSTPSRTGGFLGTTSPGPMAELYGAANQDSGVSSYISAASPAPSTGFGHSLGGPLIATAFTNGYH

| Binder | binding signal [enrichment R] |
| --- | --- |
| B1 | 0.4 |
| B2 | 0.695 |
| B3 | 0.452 |
| B4 | 1.25 |
| B5 | 0.564 |
| B6 | 7.14 |
| B7 | 3.47 |
| B8 | 0.299 |
| B9 | 0.345 |
| B10 | 0.7 |
| B11 | 1.1 |
| B12 | 0.557 |
| B13 | 6.28 |
| B14 | 0.741 |
| B15 | 0.639 |
| B16 | 0.278 |
| B17 | 0.342 |
| B18 | 0.464 |
| B19 | 0.415 |
| B20 | 10.3 |
| B21 | 0.389 |
| B22 | 0.415 |
